# Measured values published in PubChem BioAssay AID662 (National Center for Advancing Translational Sciences (NCATS), 2007).
# The whole screen tested about 71,000 compounds, of which about 1,800 (2.5%) were called active. Inconclusive results, whose numbers are uncertain, are shown with a selection of clear calls. Calls come from the whole dose curve; as a rule, active = well fitted activation curve with a large enough effect in the signal ratio, with a control signal flat (not every such curve was filed as active); inconclusive = small, poorly fitted or top-dose-only effect, or effect the other way, or a change in a side signal; inactive = flat fitted curve, though single readings scatter; the % refers to the signal ratio. A potency beside an inconclusive call is a rough fit, not a confirmed value.
# Experiment: Cell signaling CRE-BLA (Fsk stim); for activity change, negative = inhibition: % of control where 0% means no effect
# Conditions: CHO CRE-bla reporter (cAMP response element driving beta-lactamase), forskolin EC10, beta-lactamase ratio; activity change, negative = inhibition: at 38.2 µM (top of the series) unless noted
# In short: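 CRE-bla CHO cells stimulated with EC10 NKH 477 (water-soluble forskolin) and compound titrations, 3 h at 37C; beta-lactamase read with CCF4 after 2 h at room temperature. Activity from 460/530 nm emission ratio, AC50 values for positive or negative modulation.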
# Potency is the fitted concentration of half-maximal effect; tags give direction and shape of the fitted curve.
SMILES,"activity change, negative = inhibition",Potency
CCN(CCCNC(=O)CN(C)S(=O)(=O)c1cccc2nsnc12)c1cccc(C)c1,inconclusive: -2.3%,
CC(C)CCNC(=O)NC(=O)CN1C(=O)NC2(CCCCC2)C1=O,,"inconclusive: 3.98 µM [falling, single point]"
CCOCCCNC(=O)C(c1ccc(Cl)cc1)N1CCN(C(=O)c2ccco2)CC1 (stereo not given),inconclusive: 13.4%,
O=C(COc1cccc(Oc2ccccc2)c1)Nc1ncccn1,,"inconclusive: 3.98 µM [falling, single point]"
CCOCCc1c(O)nc(SCC(=O)NCc2ccco2)[nH]c1=O,inconclusive: 6.99%,
Nn1c(SCc2csc(-c3ccccc3)n2)nnc1-c1cccs1,inactive: 6.29%,
CCNC(=O)CN(c1ccc(OC)c(OC)c1)S(=O)(=O)c1ccccc1,inactive: -3.82%,
COc1cc(NC(=O)c2ccccc2)cc(OC)c1,,"inconclusive: 12.6 µM [falling, single point]"
Cc1cc(Cl)ccc1OCC(=O)Nn1c(C)ccc1C,inconclusive: -27.8%,
Cc1ccc(N2C(N)=C(C#N)C(c3cccnc3)C3=C2CC(C)(C)CC3=O)cc1 (stereo not given),inconclusive: 3.54%,
Cc1cc(=O)n2nc(N3CCC(C(=O)NCCC4=CCCCC4)CC3)sc2n1,inconclusive: 5.73%,
N[C@@H](CSc1nc2ccccn2c1[N+](=O)[O-])C(=O)O,inactive: 6.69% [at 7.6 µM],
COc1ccc(C(=O)NCc2ccccc2OC)c(OC)c1,inconclusive: 24.2% [at 7.6 µM],
Cc1csc(NC(=O)c2cccc(Cn3nc(C)c(Br)c3C)c2)n1,,"inconclusive: 12.6 µM [rising, single point]"
CCC(C)Sc1nc2c(c(=O)[nH]c(=O)n2C)n1Cc1ccccc1Cl (stereo not given),,active: 5.01 µM
COc1ccc2[nH]c(=O)c(CN(CC3CCCO3)C(=O)Nc3ccccc3)cc2c1 (stereo not given),inconclusive: 18.1%,
NC(=O)c1ncn([C@H]2O[C@@H](CO)[C@@H](O)[C@@H]2O)n1,inactive: -14.1% [at 17.1 µM],
CC1=C(/C=C/C(C)=C/C=C/C(C)=C\C=O)C(C)(C)CCC1,inconclusive: -7% [cytotoxic],
CCOC(=O)C1CCCN(C(=O)CN2C(=O)c3ccccc3C2=O)C1 (stereo not given),inconclusive: 26.7% [at 7.6 µM],
CCc1nnc(NC(=O)CSc2nnc(-c3ccoc3C)n2-c2cccc(C)c2)s1,,"inconclusive: 10 µM [rising, partial curve]"
C=CCn1cc(C(=O)NCCCOC)c(=O)c2cc(S(=O)(=O)N3CCC(C)CC3)ccc21,inactive: -8.28%,
Cc1ccc(C)c(NC(=O)CSc2nnc([C@@H]3CCCN3C(=O)OC(C)(C)C)o2)c1,,"inconclusive: 15.8 µM [rising, single point]"
Nc1c(C(=O)c2ccccc2)oc2ccc(Br)cc12,,"inconclusive: 25.1 µM [rising, single point]"
CCOC(=O)CCCNC(=O)COC(=O)c1cccc(C)c1O,,"inconclusive: 0.501 µM [rising, single point]"
O=C(COc1ccccc1)Nc1ccccc1N1CCCCC1,inconclusive: 28.5%,

SMILES,"activity change, negative = inhibition",Potency
COc1ccc(-c2nnc(NC(=O)c3ccc(S(=O)(=O)N4CCc5ccccc5C4)cc3)o2)cc1,inactive: 1.14%,
CCN(CC)S(=O)(=O)c1cccc(-c2nnc(SCC(=O)c3cc(C)n(C)c3C)o2)c1,inactive: 0.304%,
O=C(Nc1cccnc1)c1c(F)c(F)c(F)c(F)c1F,inconclusive: 2.05%,
CCCCN(C)S(=O)(=O)c1ccc(C(=O)Nc2nnc(-c3cccs3)o2)cc1,,"inconclusive: 10 µM [falling, partial curve, poor fit]"
O=C(CC(CC(=O)c1ccccc1)C(=O)O)c1ccccc1,inconclusive: -6.76% [at 7.6 µM],
Cc1ccc(-c2noc(CCC(=O)Nc3ccc4c(c3)OCO4)n2)cc1,inactive: -6.74%,
Nc1ccc(N2CCCCCC2)cc1,inactive: -6.29%,
Cc1nc(SCC(=O)Nc2ccc3c(c2)OCCO3)c2oc3ccccc3c2n1,,active: 0.251 µM
CN(C)CCCn1cnc2cc(Cl)c(Cl)cc21,inactive: 1.97% [at 7.6 µM],
COc1ccc(OC)c(NC(=O)Cn2c(=O)oc3ccccc32)c1,inactive: 3.37%,
N#CC(C(=O)OC1CCCCC1)c1nc2ccccc2nc1N1CCOCC1 (stereo not given),,"inconclusive: 12.6 µM [falling, single point]"
CCN(CC)C(=O)c1sc(NC(=O)Cc2cccs2)c(C#N)c1C,inconclusive: 20.5%,
COc1ccc(CCN2C(=O)C(O)=C(C(=O)c3ccco3)C2c2cccs2)cc1OC (stereo not given),inactive: 1.3%,
Cc1ccc(C)c(-c2nnc(OCC(=O)Nc3cc(C)on3)c3ccccc23)c1,,"inconclusive: 10 µM [rising, single point]"
CNC(=O)CCc1nc(-c2ccc(C(C)(C)C)cc2)no1,,"inconclusive: 25.1 µM [rising, single point]"
C[C@H]1[C@H](C)CC[C@@]2(C(=O)O)CC[C@]3(C)C(=CC[C@@H]4[C@@]5(C)CC[C@H](O)C(C)(C)[C@@H]5CC[C@@]43C)[C@@H]12,inconclusive: 4.77%,
CCCCN(CCCC)S(=O)(=O)c1ccc2oc(C(=O)N3CCOCC3)c(C)c2c1,,"inconclusive: 12.6 µM [rising, single point]"
CCOC(=O)C1=C(c2ccccc2)Nc2ncnn2C1c1cc(OC)ccc1OC (stereo not given),,"inconclusive: 3.16 µM [rising, single point]"
Nc1nonc1C(=O)NCCNC(=O)c1cccs1,,"inconclusive: 10 µM [falling, single point]"
CC(=NCCN1CCNCC1)C1=C(O)CC(C)(C)CC1=O,inactive: 3.16%,
CCCC(=O)Nc1c(C(=O)OCC)[nH]c2ccccc12,inactive: -2.4%,
Cc1ccc(-c2nnc(CSc3nnc4c5c(C)c(C)sc5nc(C(C)C)n34)o2)cc1,inactive: 2.5%,
O=C(NCc1nc2ccccc2[nH]1)[C@H]1C[C@@H]1[C@H](NP(=O)(c1ccccc1)c1ccccc1)c1ccccc1,inactive: -17.6%,
COc1ccccc1-c1noc(-c2cc(OC)c(OC)c(OC)c2)n1,,active: 6.31 µM
CC[C@]1(O)C[C@@H]2CN(CCc3c([nH]c4ccccc34)[C@](C(=O)OC)(c3cc4c(cc3OC)N(C=O)[C@H]3[C@@](O)(C(=O)OC)[C@H](C(=O)OC)[C@@]5(CC)C=CCN6CC[C@]43[C@H]65)C2)C1,,active: 0.501 µM
